# In the supplement of paper PMC8728848:
# The other results are listed elsewhere or left out.
# Columns and labels:
# Experiment in all cases: glycan array binding signal (z-score within array); higher = stronger binding
# Conditions in all cases: glycan notation: IUPAC condensed, linker removed
# Gal(a1-3)Gal(b1-4)GlcNAc = target: Gal(a1-3)Gal(b1-4)GlcNAc
# Outline: (§1)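 The Consortium for Functional Glycomics database supplied 3228 glycan arrays, of which those lacking an available protein sequence were dropped. The binding signal, a within-array Z-score, was averaged across arrays of the same protein sequence and across linkers. Negative scores can be read as non-binding.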
# [1] = target: Gal(a1-3)Gal(b1-4)GlcNAc(b1-2)Man
# Outline: as §1
# [2] = target: Gal(a1-3)Gal(b1-4)GlcNAc(b1-2)Man(a1-3)[Gal(a1-3)Gal(b1-4)GlcNAc(b1-2)Man(a1-6)]Man(b1-4)GlcNAc(b1-4)GlcNAc
# Outline: as §1
# [3] = target: Gal(a1-3)Gal(b1-4)GlcNAc(b1-3)GalNAc
# Outline: as §1
# [4] = target: Gal(a1-3)Gal(b1-4)GlcNAc(b1-6)GalNAc
# Outline: as §1
# [5] = target: Gal(a1-3)Gal(b1-4)[Fuc(a1-3)]GlcNAc
# Outline: as §1
# [6] = target: Gal(a1-3)Gal(b1-4)[Fuc(a1-3)]GlcNAc(b1-2)Man(a1-3)[Gal(a1-3)Gal(b1-4)[Fuc(a1-3)]GlcNAc(b1-2)Man(a1-6)]Man(b1-4)GlcNAc(b1-4)GlcNAc
# Outline: as §1
# Gal(a1-3)GalNAc = target: Gal(a1-3)GalNAc
# Outline: as §1
# [7] = target: Gal(a1-3)[Gal(a1-4)]Gal(b1-4)GlcNAc
# Outline: as §1
# [8] = target: Gal(a1-4)Gal(b1-3)GlcNAc(b1-2)Man(a1-3)[Gal(a1-4)Gal(b1-3)GlcNAc(b1-2)Man(a1-6)]Man(b1-4)GlcNAc(b1-4)GlcNAc
# Outline: as §1
# Gal(a1-4)Gal(b1-4)Glc = target: Gal(a1-4)Gal(b1-4)Glc
# Outline: as §1
# Gal(a1-4)Gal(b1-4)GlcNAc = target: Gal(a1-4)Gal(b1-4)GlcNAc
# Outline: as §1
# [9] = target: Gal(a1-4)Gal(b1-4)GlcNAc(b1-2)Man(a1-3)[Gal(a1-4)Gal(b1-4)GlcNAc(b1-2)Man(a1-6)]Man(b1-4)GlcNAc(b1-4)GlcNAc
# Outline: as §1
# [10] = target: Gal(a1-4)Gal(b1-4)GlcNAc(b1-3)Gal(b1-4)Glc
# Outline: as §1
# Gal(a1-4)GlcNAc = target: Gal(a1-4)GlcNAc
# Outline: as §1
# Gal(a1-6)Glc = target: Gal(a1-6)Glc
# Outline: as §1
# Gal(b1-2)Gal = target: Gal(b1-2)Gal
# Outline: as §1
# Gal(b1-3)Gal = target: Gal(b1-3)Gal
# Outline: as §1
# Gal(b1-3)Gal(b1-4)GlcNAc = target: Gal(b1-3)Gal(b1-4)GlcNAc
# Outline: as §1
# Gal(b1-3)GalNAc = target: Gal(b1-3)GalNAc
# Outline: as §1
# [11] = target: Gal(b1-3)GalNAc(a1-3)[Fuc(a1-2)]Gal(b1-4)Glc
# Outline: as §1
# [12] = target: Gal(b1-3)GalNAc(a1-3)[Fuc(a1-2)]Gal(b1-4)GlcNAc
# Outline: as §1
# Gal(b1-3)GalNAc(b1-3)Gal = target: Gal(b1-3)GalNAc(b1-3)Gal
# Outline: as §1
# [13] = target: Gal(b1-3)GalNAc(b1-3)Gal(a1-4)Gal(b1-4)Glc
# Outline: as §1
# [14] = target: Gal(b1-3)GalNAc(b1-4)Gal(b1-4)Glc
# Outline: as §1
# [15] = target: Gal(b1-3)GalNAc(b1-4)[Neu5Ac(a2-3)]Gal(b1-4)Glc
# Outline: as §1
# Gal(b1-3)GlcNAc = target: Gal(b1-3)GlcNAc
# Outline: as §1
# [16] = target: Gal(b1-3)GlcNAc(a1-3)Gal(b1-4)GlcNAc
# Outline: as §1
# [17] = target: Gal(b1-3)GlcNAc(a1-6)Gal(b1-4)GlcNAc
# Outline: as §1
# Gal(b1-3)GlcNAc(b1-2)Man = target: Gal(b1-3)GlcNAc(b1-2)Man
# Outline: as §1
# [18] = target: Gal(b1-3)GlcNAc(b1-2)Man(a1-3)[Gal(b1-3)GlcNAc(b1-2)Man(a1-6)]Man(b1-4)GlcNAc(b1-4)GlcNAc
# Outline: as §1
# [19] = target: Gal(b1-3)GlcNAc(b1-2)Man(a1-3)[Gal(b1-3)GlcNAc(b1-2)Man(a1-6)]Man(b1-4)GlcNAc(b1-4)[Fuc(a1-6)]GlcNAc
# Outline: as §1
# [20] = target: Gal(b1-3)GlcNAc(b1-2)Man(a1-3)[GlcNAc(b1-4)][Gal(b1-3)GlcNAc(b1-2)Man(a1-6)]Man(b1-4)GlcNAc(b1-4)GlcNAc
# Outline: as §1
# [21] = target: Gal(b1-3)GlcNAc(b1-2)[Gal(b1-3)GlcNAc(b1-6)]Man(a1-6)[Gal(b1-3)GlcNAc(b1-2)Man(a1-3)]Man(b1-4)GlcNAc(b1-4)GlcNAc
# Outline: as §1
# [22] = target: Gal(b1-3)GlcNAc(b1-3)Gal(b1-3)GlcNAc
# Outline: as §1
# [23] = target: Gal(b1-3)GlcNAc(b1-3)Gal(b1-4)Glc
# Outline: as §1
# [24] = target: Gal(b1-3)GlcNAc(b1-3)Gal(b1-4)GlcNAc
# Outline: as §1
# [25] = target: Gal(b1-3)GlcNAc(b1-3)Gal(b1-4)GlcNAc(b1-2)Man(a1-3)[Gal(b1-3)GlcNAc(b1-3)Gal(b1-4)GlcNAc(b1-2)Man(a1-6)]Man(b1-4)GlcNAc(b1-4)GlcNAc
# Outline: as §1
# [26] = target: Gal(b1-3)GlcNAc(b1-3)Gal(b1-4)GlcNAc(b1-2)[Gal(b1-3)GlcNAc(b1-3)Gal(b1-4)GlcNAc(b1-6)]Man(a1-6)[Gal(b1-3)GlcNAc(b1-3)Gal(b1-4)GlcNAc(b1-2)Man(a1-3)]Man(b1-4)GlcNAc(b1-4)[Fuc(a1-6)]GlcNAc
# Outline: as §1
# [27] = target: Gal(b1-3)GlcNAc(b1-3)Gal(b1-4)GlcNAc(b1-3)Gal(b1-4)GlcNAc(b1-2)[Gal(b1-3)GlcNAc(b1-3)Gal(b1-4)GlcNAc(b1-3)Gal(b1-4)GlcNAc(b1-6)]Man(a1-6)[Gal(b1-3)GlcNAc(b1-3)Gal(b1-4)GlcNAc(b1-3)Gal(b1-4)GlcNAc(b1-2)Man(a1-3)]Man(b1-4)GlcNAc(b1-4)[Fuc(a1-6)]GlcNAc
# Outline: as §1
# [28] = target: Gal(b1-3)GlcNAc(b1-3)Gal(b1-4)GlcNAc(b1-6)[Gal(b1-3)GlcNAc(b1-3)]Gal(b1-4)Glc
# Outline: as §1
# [29] = target: Gal(b1-3)GlcNAc(b1-3)Gal(b1-4)[Fuc(a1-3)]GlcNAc
# Outline: as §1
# [30] = target: Gal(b1-3)GlcNAc(b1-3)Gal(b1-4)[Fuc(a1-3)]GlcNAc(b1-6)[Gal(b1-3)GlcNAc(b1-3)]Gal(b1-4)Glc
# Outline: as §1
# [31] = target: Gal(b1-3)GlcNAc(b1-3)GalNAc
# Outline: as §1
# [32] = target: Gal(b1-3)GlcNAc(b1-6)Gal(b1-4)GlcNAc
# Outline: as §1
binder,measurement,setting,value
"SSR1 (Sclerotium rolfsii), A0A0M3KL30 (protein) TYKITVRVYQTNPDAFFHPVEKTVWKYANGGTWTITDDQHVLTMGGSGTSGTLRFHADNGESFTATFGVHNYKRWCDIVTNLAADETGMVINQQYYSQKNREEARERQLSNYQVKNAKGRNFQIVYTEAEGNDLHANLIIG",glycan array binding signal (z-score),Gal(a1-3)Gal(b1-4)GlcNAc,-0.338
same,glycan array binding signal (z-score),[1],-0.345
same,glycan array binding signal (z-score),[2],-0.321
same,glycan array binding signal (z-score),[3],0.577
same,glycan array binding signal (z-score),[4],0.045
same,glycan array binding signal (z-score),[5],-0.338
same,glycan array binding signal (z-score),[6],-0.308
same,glycan array binding signal (z-score),Gal(a1-3)GalNAc,-0.251
same,glycan array binding signal (z-score),[7],-0.338
same,glycan array binding signal (z-score),[8],-0.352
same,glycan array binding signal (z-score),Gal(a1-4)Gal(b1-4)Glc,-0.335
same,glycan array binding signal (z-score),Gal(a1-4)Gal(b1-4)GlcNAc,-0.332
same,glycan array binding signal (z-score),[9],-0.336
same,glycan array binding signal (z-score),[10],-0.35
same,glycan array binding signal (z-score),Gal(a1-4)GlcNAc,-0.348
same,glycan array binding signal (z-score),Gal(a1-6)Glc,-0.339
same,glycan array binding signal (z-score),Gal(b1-2)Gal,-0.335
same,glycan array binding signal (z-score),Gal(b1-3)Gal,-0.326
same,glycan array binding signal (z-score),Gal(b1-3)Gal(b1-4)GlcNAc,-0.345
same,glycan array binding signal (z-score),Gal(b1-3)GalNAc,0.786
same,glycan array binding signal (z-score),[11],1.15
same,glycan array binding signal (z-score),[12],1.31
same,glycan array binding signal (z-score),Gal(b1-3)GalNAc(b1-3)Gal,-0.338
same,glycan array binding signal (z-score),[13],-0.337
same,glycan array binding signal (z-score),[14],-0.34
same,glycan array binding signal (z-score),[15],-0.336
same,glycan array binding signal (z-score),Gal(b1-3)GlcNAc,-0.329
same,glycan array binding signal (z-score),[16],-0.34
same,glycan array binding signal (z-score),[17],-0.343
same,glycan array binding signal (z-score),Gal(b1-3)GlcNAc(b1-2)Man,-0.34
same,glycan array binding signal (z-score),[18],-0.284
same,glycan array binding signal (z-score),[19],-0.333
same,glycan array binding signal (z-score),[20],-0.146
same,glycan array binding signal (z-score),[21],-0.322
same,glycan array binding signal (z-score),[22],-0.335
same,glycan array binding signal (z-score),[23],-0.347
same,glycan array binding signal (z-score),[24],-0.321
same,glycan array binding signal (z-score),[25],-0.32
same,glycan array binding signal (z-score),[26],-0.27
same,glycan array binding signal (z-score),[27],-0.276
same,glycan array binding signal (z-score),[28],-0.327
same,glycan array binding signal (z-score),[29],-0.326
same,glycan array binding signal (z-score),[30],-0.347
same,glycan array binding signal (z-score),[31],-0.344
same,glycan array binding signal (z-score),[32],-0.339
